According to article PMC4336329 (PLoS ONE, 2015):
Among all 310,000 compounds or so, about 14,000 (4.5%) showed an effect of 50% or more. The effect is printed as a negative number. The list shows a part of the results. Where a SMILES comes first, the peptide text is derived from it. [ ]: non-standard residue; d: D form. The star is where a group is joined. Tic = O=C(O)[C@@H]1Cc2ccccc2CN1; NHPr = CCCN*

biological target: human ether-à-go-go-related gene (hERG) potassium channel (human, UniProt Q12809); assay: primary screen, population patch clamp on CHO cells stably expressing hERG
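Further: peak tail current of the secondary pulse compared with the same well before compound.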

human ether-à-go-go-related gene (hERG) potassium channel, sequence (Q12809 whole entry, looked up): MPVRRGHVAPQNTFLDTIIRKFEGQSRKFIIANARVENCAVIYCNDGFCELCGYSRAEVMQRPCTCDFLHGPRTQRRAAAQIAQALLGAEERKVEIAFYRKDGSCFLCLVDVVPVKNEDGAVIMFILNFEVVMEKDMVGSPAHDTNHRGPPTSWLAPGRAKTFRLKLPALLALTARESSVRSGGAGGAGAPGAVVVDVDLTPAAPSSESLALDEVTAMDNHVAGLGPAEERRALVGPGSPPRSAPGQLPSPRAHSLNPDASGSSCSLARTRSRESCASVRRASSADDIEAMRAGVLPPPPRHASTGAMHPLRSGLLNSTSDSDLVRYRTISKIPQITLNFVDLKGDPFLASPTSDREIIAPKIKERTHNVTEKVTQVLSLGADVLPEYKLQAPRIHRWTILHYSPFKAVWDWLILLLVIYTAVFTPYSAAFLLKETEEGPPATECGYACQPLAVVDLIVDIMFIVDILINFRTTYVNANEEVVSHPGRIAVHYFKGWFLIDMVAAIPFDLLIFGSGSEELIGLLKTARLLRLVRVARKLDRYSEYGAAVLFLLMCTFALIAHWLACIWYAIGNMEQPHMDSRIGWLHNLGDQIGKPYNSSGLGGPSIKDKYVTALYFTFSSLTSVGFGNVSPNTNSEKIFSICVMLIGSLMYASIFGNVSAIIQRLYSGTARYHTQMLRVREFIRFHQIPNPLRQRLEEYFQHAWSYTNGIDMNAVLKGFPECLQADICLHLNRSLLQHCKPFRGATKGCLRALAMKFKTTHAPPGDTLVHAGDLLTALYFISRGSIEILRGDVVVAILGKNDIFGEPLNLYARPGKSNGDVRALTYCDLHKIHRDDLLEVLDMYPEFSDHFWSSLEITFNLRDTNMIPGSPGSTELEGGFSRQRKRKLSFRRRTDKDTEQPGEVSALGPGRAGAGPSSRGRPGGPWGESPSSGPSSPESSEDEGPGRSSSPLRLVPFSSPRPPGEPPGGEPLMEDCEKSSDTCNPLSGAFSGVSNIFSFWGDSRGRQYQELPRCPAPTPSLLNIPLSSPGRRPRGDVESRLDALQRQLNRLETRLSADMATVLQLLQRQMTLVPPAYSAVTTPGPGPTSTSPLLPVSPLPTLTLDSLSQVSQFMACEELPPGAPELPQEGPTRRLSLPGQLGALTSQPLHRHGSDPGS

Compound | hERG current change (%, negative = inhibition) at 10uM
COc1cccc(C(=O)Nc2ccc(-n3nncc3C(C)(C)C)cc2)c1 | -60.5%
CCN(CC)S(=O)(=O)c1ccc(NC(=O)c2cccs2)cc1 | -19.7%
CC(C)N(C(=O)CN(C#N)c1nc(N(C)C)nc(N(C)C)n1)c1ccccc1 | 1.98%
O=C(CN1N=C(c2ccc(Cl)cc2)CCC1=O)NCCN1CCc2ccccc2C1 | -51.4%
COCCOC(=O)c1c(C)oc2ccc(OCC=C(C)C)cc12 | 2.18%
OC(CN1CCCCC1)Cn1c2ccccc2c2ccccc21 (centres unmarked) | 3.16%
Cc1cccc(CN2CCCC(C(=O)Nc3ccccc3Oc3cccnc3)C2)c1 (centres unmarked) | -43.9%
Brc1ccc2[nH]c3c(c2c1)CCC3 | 15.9%
CCc1ccc(C(=O)NC(=S)Nc2ccccc2N2CCOCC2)cc1 | 10.3%
CCc1ccccc1NC(=O)c1cc2sccc2n1C | -5.61%
COC(=O)c1ccccc1NC(=O)C1CC(=O)N(c2ccc(OC)cc2)C1 (centres unmarked) | -26.2%
CC(=O)Oc1ccc(/C=N/NC(=O)c2ccc(N(C)S(=O)(=O)c3ccccc3)cc2)cc1 | 12.8%
CC(Cc1cccnc1)NC(=O)c1cc(COc2ccc(F)cc2F)on1 (centres unmarked) | -10.4%
O=C(Cn1cc([N+](=O)[O-])cn1)NCc1cc2ccccc2[nH]1 | -1.72%
O=C(COC(=O)C1CC2CCCC(C1)C2=O)NNC(=O)c1ccccc1F (centres unmarked) | 20.4%
CN1CCN(NS(=O)(=O)c2ccc(Cl)s2)CC1 | 12.3%
O=C(NCc1ccco1)C(c1ccccc1)N(C(=O)Cc1cccs1)c1ccccc1F (centres unmarked) | 4.5%
CC(C)c1ccc(C2(C)NC(=O)N(CC(=O)NCC3COc4ccccc4O3)C2=O)cc1 (centres unmarked) | -24.2%
Cl.O=C(CC(Nc1ccc(F)cc1)c1ccccc1)c1ccccc1 (centres unmarked) | -2.3%

Compound | hERG current change (%, negative = inhibition) at 10uM
O=C(Cn1cc([N+](=O)[O-])cn1)NCC1CCCO1 (centres unmarked) | 14%
Cc1cccc(N2CCN(C(=O)c3ccc(-n4cncn4)c([N+](=O)[O-])c3)CC2)c1C | -58.9%
CCC(C)N(C(=O)CSc1ncnc2sccc12)C1CCS(=O)(=O)C1 (centres unmarked) | -25.2%
Cc1cccc(N(C(=O)CNC(=O)c2ccco2)C(C(=O)NC2CCCC2)c2cccnc2)c1C (centres unmarked) | 15.1%
O=C(O)c1cn(CCOc2ccccc2Cl)c2ccccc12 | 18.2%
COc1ccc(N2C3=C(CC4=C2CC(C)(C)CC4=O)C(=O)CC(C)(C)C3)cc1 | 1.32%
CCOC(=O)Nc1sc(C)c(C)c1C(N)=O | 9.44%
Oc1ccc(Cl)cc1-c1cc(-c2ccccc2Cl)[nH]n1 | 3.63%
CCc1ccccc1NC(=O)N[C@@H](C)C(=O)OC | 5.75%
NC(=O)CC(NC(=O)Cc1ccc(Br)cc1)c1ccc(NCc2ccc(F)cc2)c([N+](=O)[O-])c1 (centres unmarked) | 3.05%
CCn1c(SC)nnc1-c1nnc(SC)n1CC | -7.09%
COc1cc(C2(c3ccc(O)c(OC)c3)C(=O)N(C)c3ccc(Br)cc32)ccc1O | -52.6%
O=c1oc2ccccc2n1Cc1cccc(F)c1 | 1.04%
Cc1cc(C)nc(SCCC(=O)Nc2ccccc2Cl)n1 | 17.4%
COC(=O)CN(c1ccc(C)c(Cl)c1)S(C)(=O)=O | 2.66%
O=C(Nc1ccc([N+](=O)[O-])cn1)c1ccc2c(c1)OCO2 | 27.3%
COc1ccc(C(=O)NCC(=O)N/N=C/c2cn[nH]c2-c2ccccc2)cc1 | -4.44%
CC(C)Sc1nnc(NC(=O)CCc2ccccc2)s1 | 7.44%
COc1cc(/C=C/c2cc(C(=O)O)c3ccccc3n2)cc(OC)c1O | 10.3%

Compound | hERG current change (%, negative = inhibition) at 10uM
COc1cccc(NC(=O)C23CCC(C)(C(=O)O2)C3(C)C)c1 (centres unmarked) | -5.46%
O=C(O)CCc1ccc(-c2ccccc2)n1NC(=O)c1cccs1 | 26%
O=C(CSc1nnc(-c2ccc3c(c2)OCO3)n1-c1ccccc1)c1ccc(Cl)cc1 | 13%
CCCCN(CC)c1nc(-c2ccncc2)nc2ccccc12 | 1.06%
COc1ccc(CCNC(=O)/C=C/c2cc(OC)c(OC)c(OC)c2)cc1OC | 15.3%
COc1cc(CNC(=O)C2CC2)ccc1OCc1ccccc1 | -11.8%
COc1cccc(/C=C2/NC(=O)NC2=O)c1OCC(=O)Nc1ccccc1 | 17.3%
CCC(=O)Nc1nc2ccc3sc(C)nc3c2s1 | 3.22%
CCCNC(=O)[C@@H]1CCCN1C(=O)[C@@H]1Cc2ccccc2CN1.Cl (H-[Tic]-Pro-NHPr) | 10.9%
CCCn1c(=O)n(C)c(=O)c2c(SC(C)C(=O)NCC3CCCO3)nc(CC(C)C)nc21 (centres unmarked) | 9.18%
CCCCCC(=O)Nc1cc(S(=O)(=O)N2CCCCC2)ccc1N1CCOCC1 | -12.6%
Cc1cc(Br)ccc1NC(=O)CN1CCN(c2ccccn2)CC1 | -71.5%
CCc1cc2c(SCc3nc4sc(C(C)=O)c(C)c4c(=O)[nH]3)ncnc2s1 | 16.8%
CCOC(=O)C(C)Sc1nnc(-c2ccccc2O)n1-c1ccc(C)cc1 (centres unmarked) | -4.83%
Cc1ccc(/C=C2\OC(=O)c3ccccc32)cc1 | 14.9%
Cc1ccc(C)c(S(=O)(=O)N2CCN(C(=O)CCc3c[nH]c4ccccc34)CC2)c1 | -35.4%
COc1ccc(/C=N/O)cc1COc1ccc(NC(C)=O)cc1 | -16.7%
C/C(=N/NC(=O)CNc1ccc(C)cc1)c1ccc(Cl)cc1 | 6.28%
